Test results reported in the supplement of paper PMC8007513.
Where a name gives a salt, the structure may show the parent alone. ± gives the standard error. The campaign covered roughly 1,300 compounds. About 75 (6%) showed an effect of 50% or more. The list shows a part of the results.

System: Trichoderma virens ATCC 9645
Assay: growth yield (OD600) relative to untreated control; higher = less growth inhibition
Conditions: compound concentration: 100 uM
Method in brief: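 Growth appears as means of duplicate screens, relative to the control containing neither agent. To obtain it, OD600 was read on a BioTek EL800 at 40 h and 72 h. The cultures were 100 μl aliquots in 96-well plates at 30 °C, holding Trichoderma virens ATCC 9645 spores at 15,000 spores ml^−1 in potato dextrose broth, library compounds at 100 μM final, and, in some wells, a biocide at 200 ng ml^−1.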

Work on Cc1nc(=O)c2cc(CN(C)c3ccc(C(=O)N[C@@H](CCC(=O)O)C(=O)O)s3)ccc2[nH]1 [Raltitrexed] yielded a growth yield (40 h) of 99 ± 1.1% and a growth yield (72 h) of 94.5 ± 1.4%.
O=c1oc2ccccc2c(O)c1Cc1c(O)c2ccccc2oc1=O [Dicumarol] showed a growth yield (40 h) of 94 ± 0.95% and a growth yield (72 h) of 92.4 ± 0.94%.
With CCN(CC)CCc1nc(-c2ccccc2)no1 [Oxalamine citrate salt] the growth yield (40 h) was 93.4 ± 0.32% and the growth yield (72 h) was 91.243 ± 1e-14%.
Work on CNCC(O)c1ccc(OC(=O)C(C)(C)C)c(OC(=O)C(C)(C)C)c1 (stereo not drawn) [Dipivefrin hydrochloride] yielded a growth yield (40 h) of 99.28 ± 0.79% and a growth yield (72 h) of 100.2 ± 0.94%.
For Cc1c(N(C)CS(=O)(=O)O)c(=O)n(-c2ccccc2)n1C [Dipyrone], the growth yield (40 h) was 91.7 ± 4.6% and the growth yield (72 h) was 85.68 ± 0.73%.
O=c1[nH]c(=O)n(C2CCCO2)cc1F (stereo not drawn) [Tegafur] gave a growth yield (40 h) of 106 ± 8.3% and a growth yield (72 h) of 94.8 ± 7.5%.
Work on CC(NCCC(c1ccccc1)c1ccccc1)c1ccccc1 (stereo not drawn) [Fendiline hydrochloride] yielded a growth yield (40 h) of 106 ± 2.5% and a growth yield (72 h) of 115 ± 4.2%.
For CC(=O)Oc1ccccc1C(=O)Nc1ncc([N+](=O)[O-])s1 [Nitazoxanide], the growth yield (40 h) was 89.3 ± 4.1% and the growth yield (72 h) was 97.7 ± 2.1%.
Compound CCN(CC)CCOC(=O)C1(C2CCCCC2)CCCCC1 [Dicyclomine hydrochloride] has a growth yield (40 h) of 97.5 ± 3.8% and a growth yield (72 h) of 101 ± 6.2%.
With CC(N/C(=N\C#N)Nc1ccncc1)C(C)(C)C (stereo not drawn) [Pinacidil] the growth yield (40 h) was 100 ± 2.2% and the growth yield (72 h) was 103 ± 0.21%.
With CCCCC(O)c1ccccc1 (stereo not drawn) [Fenipentol] the growth yield (40 h) was 96.89 ± 0.32% and the growth yield (72 h) was 101 ± 0.32%.
With CN(C)CCCN1c2ccccc2Sc2ccc(C(F)(F)F)cc21 [Triflupromazine hydrochloride] the growth yield (40 h) was 74.66 ± 0.32% and the growth yield (72 h) was 92.1 ± 2.1%.
COc1cc(C(=O)OCCCN2CCCN(CCCOC(=O)c3cc(OC)c(OC)c(OC)c3)CC2)cc(OC)c1OC [Dilazep dihydrochloride] showed a growth yield (40 h) of 104 ± 4.8% and a growth yield (72 h) of 99.8 ± 2.9%.
O=C1c2c(O)cccc2Cc2cccc(O)c21 [Anthralin] was tested, and the growth yield (40 h) was 96.7 ± 3.6% and the growth yield (72 h) was 89.5 ± 2.8%.
C[C@@H]1C[C@H]2[C@@H]3C[C@H](F)C4=CC(=O)C=C[C@]4(C)[C@@]3(F)[C@@H](O)C[C@]2(C)[C@@]1(O)C(=O)CO [Flumethasone] gave a growth yield (40 h) of 97.2 ± 2.2% and a growth yield (72 h) of 92.29 ± 0.84%.
In the case of O=C(O)Cc1ccc(-c2ccccc2)cc1 [Felbinac], the growth yield (40 h) is reported as 79.7 ± 19% and the growth yield (72 h) is reported as 98.4 ± 3.4%.
With O=C(O)c1cn(-c2ccc(F)cc2)c2cc(N3CCNCC3)c(F)cc2c1=O [Sarafloxacin] the growth yield (40 h) was 101 ± 4.1% and the growth yield (72 h) was 97 ± 2.4%.
Compound C[N+]1(C)CCC(OC(=O)C(O)(c2ccccc2)C2CCCC2)C1 (stereo not drawn) [Glycopyrrolate] has a growth yield (40 h) of 96.26 ± 0.95% and a growth yield (72 h) of 90.72 ± 0.73%.
Clc1ccc(CCC(Cn2ccnc2)Sc2c(Cl)cccc2Cl)cc1 (stereo not drawn) [Butoconazole nitrate] gave a growth yield (40 h) of 3.49% and a growth yield (72 h) of 2.31%.
N#Cc1ccc(C(c2ccc(C#N)cc2)n2cncn2)cc1 [Letrozole] gave a growth yield (40 h) of 103 ± 1.1% and a growth yield (72 h) of 101.5 ± 0.42%.
N=C(NCCCCCCNC(=N)NC(=N)Nc1ccc(Cl)cc1)NC(=N)Nc1ccc(Cl)cc1 [Chlorhexidine] showed a growth yield (40 h) of 2.7 ± 1.4% and a growth yield (72 h) of 2.31 ± 0.84%.
For NCc1ccccc1CC(=O)N[C@@H]1C(=O)N2C(C(=O)O)=C(CSc3nnnn3CC(=O)O)CS[C@H]12 [Ceforanide], the growth yield (40 h) was 92.4% and the growth yield (72 h) was 96.1%.
With CN1CCN(C2=Nc3ccccc3Oc3ccc(Cl)cc32)CC1 [Loxapine succinate] the growth yield (40 h) was 97.2 ± 1.6% and the growth yield (72 h) was 102 ± 2.9%.
In the case of CC(=O)S[C@@H]1CC2=CC(=O)CC[C@]2(C)[C@H]2CC[C@@]3(C)[C@@H](CC[C@@]34CCC(=O)O4)[C@H]12 [Spironolactone], the growth yield (40 h) is reported as 96.26 ± 0.32% and the growth yield (72 h) is reported as 99.11 ± 0.94%.
Work on CCCc1cc(C(N)=S)ccn1 [Prothionamide] yielded a growth yield (40 h) of 104 ± 4.6% and a growth yield (72 h) of 104 ± 3.9%.
CC(Cc1cccc(C(F)(F)F)c1)NCCOC(=O)c1ccccc1 (stereo not drawn) [Benfluorex] showed a growth yield (40 h) of 83.5 ± 3.5% and a growth yield (72 h) of 95.9 ± 1.9%.
Work on NNCCc1ccccc1 [Phenelzine sulfate] yielded a growth yield (40 h) of 102 ± 3.5% and a growth yield (72 h) of 95.6%.
For C[C@H]1O[C@H](O[C@H]2[C@H](O)[C@@H](O)[C@@H](O[C@H]3[C@H](O)[C@@H](O)C(O)O[C@@H]3CO)O[C@@H]2CO)[C@H](O)[C@@H](O)[C@@H]1N[C@H]1C=C(CO)[C@@H](O)[C@H](O)[C@H]1O (stereo partly drawn) [Acarbose], the growth yield (40 h) was 104.7 ± 0.79% and the growth yield (72 h) was 109 ± 2%.
For CN1CCC(=C2c3ccccc3C=Cc3ccccc32)CC1 [Cyproheptadine hydrochloride], the growth yield (40 h) was 94 ± 1.6% and the growth yield (72 h) was 100 ± 1.1%.
Work on CC(C)(C)NC[C@@H](O)COc1cccc2c1CCCC2=O [(+) -Levobunolol hydrochloride] yielded a growth yield (40 h) of 100.2 ± 0.16% and a growth yield (72 h) of 98.9 ± 0.1%.
In the case of CO[C@H]1/C=C/O[C@@]2(C)Oc3c(C)c(O)c4c(O)c(c(/C=N/N5CCN(C6CCCC6)CC5)c(O)c4c3C2=O)NC(=O)/C(C)=C\C=C\[C@H](C)[C@H](O)[C@@H](C)[C@@H](O)[C@@H](C)[C@H](OC(C)=O)[C@@H]1C [Rifapentine], the growth yield (40 h) is reported as 84.5% and the growth yield (72 h) is reported as 94%.
N=C(N)NC(=N)NCCc1ccccc1 [Phenformin hydrochloride] gave a growth yield (40 h) of 96.9 ± 1.9% and a growth yield (72 h) of 91.5 ± 2.7%.
NCCc1c[nH]cn1 [Histamine dihydrochloride] was tested, and the growth yield (40 h) was 98.3 ± 3.3% and the growth yield (72 h) was 98.5 ± 3%.
For CCCOc1cc(N)ccc1C(=O)OCCN(CC)CC [Propoxycaine hydrochloride], the growth yield (40 h) was 110 ± 3.8% and the growth yield (72 h) was 106 ± 4%.
In the case of OC(Cn1cncn1)(Cn1cncn1)c1ccc(F)cc1F [Fluconazole], the growth yield (40 h) is reported as 55.1 ± 1.8% and the growth yield (72 h) is reported as 61.14 ± 0.52%.
Compound CC[N+](C)(C)c1cccc(O)c1 [Edrophonium chloride] has a growth yield (40 h) of 107 ± 5.9% and a growth yield (72 h) of 112 ± 4.7%.
With Cc1cn[nH]c1 [Fomepizole] the growth yield (40 h) was 101 ± 2.2% and the growth yield (72 h) was 101 ± 1.8%.
Work on CC[N+](C)(CC)CCOC(=O)C1c2ccccc2Oc2ccccc21 [Methantheline bromide] yielded a growth yield (40 h) of 110 ± 1.8% and a growth yield (72 h) of 108 ± 1.3%.
For CCCCN(CCCC)CCCOC(=O)c1ccc(N)cc1 [Butacaine], the growth yield (40 h) was 95.5 ± 4.9% and the growth yield (72 h) was 98.5 ± 4.1%.
With COC(=O)Nc1nc2cc(C(=O)c3cccs3)ccc2[nH]1 [Nocodazole] the growth yield (40 h) was 91.3 ± 5.2% and the growth yield (72 h) was 92.9 ± 2.9%.
Cc1ccc(C(=O)c2ccc(CC(=O)O)n2C)cc1 [Tolmetin sodium salt dihydrate] was tested, and the growth yield (40 h) was 82.9 ± 2.5% and the growth yield (72 h) was 80.3 ± 1.1%.
In the case of CC(=O)OCC(=O)[C@@]1(O)CC[C@H]2[C@@H]3CCC4=CC(=O)CC[C@]4(C)[C@@]3(F)[C@@H](O)C[C@@]21C [Fludrocortisone acetate], the growth yield (40 h) is reported as 96.73 ± 0.79% and the growth yield (72 h) is reported as 101.3 ± 0.63%.
Compound NS(=O)(=O)c1cc(C2(O)NC(=O)c3ccccc32)ccc1Cl (stereo not drawn) [Chlorthalidone] has a growth yield (40 h) of 102 ± 3.6% and a growth yield (72 h) of 105 ± 3.7%.
C=CC(N)CCC(=O)O (stereo not drawn) [Vigabatrin hydrochloride] gave a growth yield (40 h) of 101 ± 1.8% and a growth yield (72 h) of 100 ± 1.1%.
